Screen size: about 280,000 compounds; about 100 (0.036%) were called active. Inconclusive means that the source gave no clear call. Such entries were picked first, then a sample of the others. Calls follow the shape of the dose curve; as a rule, active = well fitted inhibition curve with a large enough effect in the signal ratio, with a control signal flat (not every such curve was filed as active); inconclusive = small, poorly fitted or top-dose-only effect, or effect the other way, or a change in a side signal; inactive = no such curve, though single readings can be large or run the other way; the % refers to the signal ratio. A potency beside an inconclusive call is a rough fit, not a confirmed value. A note “side channel” means that the fit belongs to a control or component signal, not to the main read-out. Residues, ends and D or L forms follow the SMILES beside them. *: point of attachment. Boc = CC(C)(C)OC(=O)*
Each molecule was assayed against Muscleblind-like protein 1 (Homo sapiens) (UniProt Q9NR56) (assay: qHTS Assay for Inhibitors of MBNL1-poly(CUG) RNA binding). Conditions: TR-FRET MBNL1-His/biotin-(CUG)12 binding, 665/545 ratio; activity change, negative = inhibition: at 57.5 µM (top of the series).
How it was run: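 His-tagged MBNL1 binding to biotinylated (CUG)12 RNA was measured by TR-FRET using terbium anti-His antibody (0.055 ng/ul final) and streptavidin-XL665 (5 nM final). Compounds were titrated 92 nM to 58 uM; 60 min at room temperature.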
% is scaled to controls: 0 for no effect and ±100 for the full control effect; potency is read from the fitted curve at half-maximal effect; tags tell the direction and shape of the fitted curve or compound fluorescence and quenching.

UniProt Q9NR56, sequence (Q9NR56 whole entry, looked up): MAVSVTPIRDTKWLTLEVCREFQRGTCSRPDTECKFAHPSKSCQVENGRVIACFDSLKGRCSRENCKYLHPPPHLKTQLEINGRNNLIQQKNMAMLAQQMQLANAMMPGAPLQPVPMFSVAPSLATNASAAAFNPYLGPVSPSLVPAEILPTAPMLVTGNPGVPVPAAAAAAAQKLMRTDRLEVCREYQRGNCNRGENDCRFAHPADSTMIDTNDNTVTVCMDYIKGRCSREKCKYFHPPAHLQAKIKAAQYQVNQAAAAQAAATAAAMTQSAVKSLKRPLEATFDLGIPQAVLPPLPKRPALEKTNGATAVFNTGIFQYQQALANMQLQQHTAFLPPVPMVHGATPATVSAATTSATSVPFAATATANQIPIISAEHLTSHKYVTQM

Question: For `CCN(C(=O)COC(=O)CSc1ccc(C(N)=O)cc1[N+](=O)[O-])C1CCCCC1`, which Potency is on record?
Answer: The Potency was inconclusive: 7.08 µM [quencher, side channel, partial curve].

Question: `Brc1cccc(OCCn2ccnc2)c1` was tested. Which Potency did it give?
Answer: The Potency was “inactive”.

Question: With `CN1/C(=C\C(=O)C[n+]2ccc(C(=O)c3ccccc3)cc2)C(C)(C)c2ccccc21` as the molecule, how does the Potency read?
Answer: Its Potency is inconclusive: 8.91 µM [quencher, side channel, partial curve].

Question: With `CCn1nnc2sc3c(c2c1=O)CCC(C)C3` (stereo unspecified) as the molecule, how does the Potency read?
Answer: Its Potency is inconclusive: 10 µM [quencher, side channel, partial curve].

Question: How did the Potency turn out when `CN1CCN(c2ccccc2NC(=O)c2cc3c(s2)-c2ccccc2OC3)CC1` was run?
Answer: Its Potency is inconclusive: 12.6 µM [quencher, side channel, partial curve, poor fit].

Question: Which Potency does the source give for `Cc1ccc(-n2nc3c([n+]2[O-])CCc2c-3no[n+]2[O-])cc1` here?
Answer: The Potency was inconclusive: 4.47 µM [quencher, side channel, full curve, poor fit].

Question: How did the Potency turn out when `C=CCOc1ccccc1C(=O)/C=C1/C(=O)Nc2ccccc21` was run?
Answer: The Potency was “inactive”.

Question: With `COc1ccc2cc3cc(C(=O)NCCN4CCc5ccccc5C4)oc3nc2c1` as the molecule, how does the Potency read?
Answer: The Potency was inconclusive: 14.1 µM [quencher, side channel, partial curve].

Question: With `COc1ccc([N+](=O)[O-])cc1/C=N/NC(=O)Cc1ccccc1` as the molecule, how does the Potency read?
Answer: Its Potency is inconclusive: 15.8 µM [quencher, side channel, partial curve].

Question: For `CN(C)c1ccc(NC(=O)c2ccc([N+](=O)[O-])cc2Cl)cc1`, which Potency is on record?
Answer: The Potency was inconclusive: 1.58 µM [quencher, side channel, full curve].

Question: For `O=C(COC(=O)c1ccc([N+](=O)[O-])s1)Nc1ncc(C(F)(F)F)cc1Cl`, which Potency is on record?
Answer: The Potency was inconclusive: 7.94 µM [quencher, side channel, full curve].

Question: With `O=[N+]([O-])c1cccc(-c2ccn[nH]2)c1` as the molecule, how does the Potency read?
Answer: Its Potency is inconclusive: 17.8 µM [quencher, side channel, partial curve].

Question: How did the Potency turn out when `COc1ccc(OC(=O)c2ccc3nsnc3c2)cc1` was run?
Answer: Its Potency is inconclusive: 4.47 µM [quencher, side channel, partial curve].

Question: With `NC(=O)CSc1nnc(NC(=O)c2ccc(S(=O)(=O)N3CCOCC3)cc2)s1` as the molecule, how does the Potency read?
Answer: The Potency was “inactive”.

Question: How did the Potency turn out when `CC(NC(=O)/C(=C/c1cccc([N+](=O)[O-])c1)NC(=O)c1ccco1)C(=O)O` (stereo unspecified) was run?
Answer: The Potency was inconclusive: 22.4 µM [quencher, side channel, single point].

Question: With `Cc1ccc(C(=O)N/C(N)=N/c2nc3ccccc3o2)cc1` as the molecule, how does the Potency read?
Answer: Its Potency is “inactive”.

Question: How did the Potency turn out when `COc1ccc(C(=O)NCCNc2ccc([N+](=O)[O-])cc2)cc1` was run?
Answer: Its Potency is inconclusive: 28.2 µM [quencher, single point].

Question: With `Cc1c(Cl)cccc1NC(=S)N1CCN(Cc2ccccc2)CC1` as the molecule, how does the Potency read?
Answer: Its Potency is “inactive”.

Question: For `COc1ccccc1CNC(=O)c1ccc(N2CCOCC2)c([N+](=O)[O-])c1`, which Potency is on record?
Answer: Its Potency is inconclusive: 15.8 µM [quencher, side channel, partial curve].

Question: How did the Potency turn out when `O=[N+]([O-])c1c(Nc2cccc(O)c2)cc(Cl)c2nonc12` was run?
Answer: Its Potency is inconclusive: 10 µM [quencher, side channel, partial curve].

Question: Which Potency does the source give for `COc1ccccc1Nc1nc(N)nc(-c2oc3ccccc3c2C)n1` here?
Answer: Its Potency is inconclusive: 14.1 µM [fluorescent, side channel, partial curve].

Question: `Cc1ccc(C(=O)O/N=C(\N)c2ccccn2)c(Cl)c1` was tested. Which Potency did it give?
Answer: Its Potency is “inactive”.

Question: `Nc1ccccc1SCc1cc([N+](=O)[O-])cc2c1OCOC2` was tested. Which Potency did it give?
Answer: Its Potency is inconclusive: 15.8 µM [quencher, side channel, partial curve].

Question: For `O=Cc1cn[nH]c1-c1cccc([N+](=O)[O-])c1`, which Potency is on record?
Answer: Its Potency is inconclusive: 15.8 µM [quencher, partial curve].

Question: For `Cc1cccc(OCc2nnc(SCC(=O)N3c4ccccc4Sc4ccc(Cl)cc43)o2)c1`, which activity change, negative = inhibition is on record?
Answer: The activity change, negative = inhibition was inconclusive: -14.5% [phenotype inactive].

Question: With `CCCN1C(=O)C(O)(CC(=O)c2ccc3c(c2)OCCO3)c2ccccc21` (stereo unspecified) as the molecule, how does the Potency read?
Answer: The Potency was inconclusive: 0.708 µM [quencher, side channel, single point].

Question: For `CC(C)Cc1cc(C(=O)NCCN2CCOCC2)no1`, which Potency is on record?
Answer: Its Potency is inconclusive: 39.8 µM [quencher, side channel, single point].

Question: Which Potency does the source give for `O=C(Nc1ccc2ccccc2c1)c1ccc2[nH]c(=O)c(=O)[nH]c2c1` here?
Answer: The Potency was “inactive”.

Question: For `CC(NC(=O)Nc1nnc(C(F)(F)F)s1)(C(F)(F)F)C(F)(F)F`, which Potency is on record?
Answer: The Potency was “inactive”.

Question: How did the Potency turn out when `Cc1ccc(N=N/C(=C\O)C(=O)c2ccncc2)cc1` was run?
Answer: The Potency was inconclusive: 15.8 µM [quencher, side channel, partial curve].

Question: For `CCN(CC)CCOc1ccc(/C(=C(/Cl)c2ccccc2)c2ccccc2)cc1`, which Potency is on record?
Answer: Its Potency is “inactive”.

Question: For `Cc1nc2ccc3[nH]snc3c2n1`, which Potency is on record?
Answer: The Potency was inconclusive: 14.1 µM [quencher, side channel, partial curve].

Question: How did the Potency turn out when `Cc1ccc(N2CCN(CCCCN3C(=O)C4CCCN4C3=O)CC2)cc1` (stereo unspecified) was run?
Answer: The Potency was “inactive”.

Question: How did the Potency turn out when `COc1ccc(S(=O)(=O)Nc2nc3ccccc3nc2Nc2ccc3c(c2)OCO3)cc1` was run?
Answer: The Potency was “inactive”.

Question: How did the Potency turn out when `Cc1nc(-c2ccc(-c3ccon3)s2)no1` was run?
Answer: Its Potency is inconclusive: 14.1 µM [quencher, side channel, partial curve].

Question: For `COc1ccc(N2C(=O)CS(=O)C(c3ccccc3)C2=O)cc1` (stereo unspecified), which Potency is on record?
Answer: Its Potency is “inactive”.

Question: `COC(=O)c1ccc([N+](=O)[O-])cc1N1C(=O)C2C3CCC(C3)C2C1=O` (stereo unspecified) was tested. Which Potency did it give?
Answer: Its Potency is inconclusive: 22.4 µM [quencher, side channel, partial curve].

Question: Which Potency does the source give for `COc1ccc(CC(=O)NCC2CCCN(Cc3ccc(F)c(OC)c3)C2)cc1` (stereo unspecified) here?
Answer: Its Potency is “inactive”.

Question: `Cc1ccc(NC(=O)COc2ccc(/C(N)=N/O)cc2)cc1C` was tested. Which Potency did it give?
Answer: Its Potency is inconclusive: 1 µM [inhibitor, full curve, poor fit].

Question: How did the Potency turn out when `CC(NC(=O)OC(C)(C)C)C(=O)N1CCCC1C(=O)NC(Cc1ccccc1)C(N)=O` (stereo not drawn) (Boc-Ala-Pro-Phe-NH2; configuration not given here) was run?
Answer: The Potency was inconclusive: 2.51 µM [quencher, side channel, partial curve].

Question: Which Potency does the source give for `COc1cccc(/C=C2\Sc3ccc(C(=O)NCC4CCCO4)cc3N(C)C2=O)c1` (stereo unspecified) here?
Answer: The Potency was inconclusive: 25.1 µM [quencher, single point].

From PubChem BioAssay AID2675 (National Center for Advancing Translational Sciences (NCATS), 2010)
